Assay results: the supplement of paper PMC12217912
This is one part of the list. The full chains were built here from the parent and the listed change. Inactive controls read about 0.05.

B1: TEV protease; numbered along this chain (parent)
chain: MGESLFKGPRDYNPISSSICHLTNESDGHTTSLYGIGFGPFIITNKHLFRRNNGTLVVQSLHGVFKVKDTTTLQQHLVDGRDMIIIRMPKDFPPFPQKLKFREPQREERICLVTTNFQTKSMSSMVSDTSCTFPSGDGIFWKHWIQTKDGQCGSPLVSTRDGFIVGIHSASNFTNTNNYFTSVPKNFMELLTNQEAQQWVSGWRLNADSVLWGGHKVFMVKPEEPFQPVKEATQL

Variants of: B1
Experiment: raw area under fraction-flipped curve 0-4 h after induction (AUC4h, not background-subtracted), DNA-recorder readout of cleavage of the substrate (dimensionless); higher = more cleavage of the substrate by the protease variant
Details: temperature: 34 °C; time window: 0-4 h after rhamnose induction
Method: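 In vivo DNA recorder in E. coli TOP10(DE3) ΔrhaA at 34 °C. Each TEVp single-site mutant (parent TEVp 0) is paired with a single-site variant of the 7-mer TEVs (canonical ENLYFQ|S). The substrate sits between flexible linkers in a Bxb1-sfGFP-TEVs-SsrA fusion, so cleavage stabilises Bxb1 and speeds flipping of a recombination array, read by NGS. The value is the raw area under the fraction-flipped curve over 0-4 h after rhamnose induction (AUC4h), with ≥20 reads per time point. It is not background-subtracted; inactive controls average about 0.047.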
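Also: Bxb1 expression induced with 0.2% (w/v) L-rhamnose at OD600 near 0.5, cultures sampled hourly, flipped fraction per protease–substrate barcode pair counted by paired-end Illumina sequencing.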

Row | Variant | area with substrate CNLYFQS | area with substrate DNLYFQS | area with substrate FNLYFQS | area with substrate GNLYFQS | area with substrate HNLYFQS | area with substrate INLYFQS | area with substrate KNLYFQS | area with substrate LNLYFQS | area with substrate MNLYFQS | area with substrate PNLYFQS | area with substrate QNLYFQS | area with substrate SNLYFQS | area with substrate TNLYFQS | area with substrate VNLYFQS | area with substrate WNLYFQS | area with substrate YNLYFQS | area with substrate NNLYFQS | area with substrate RNLYFQS
1 | P184A | 0.0595 | 0.0667 | 0.0387 | 0.0614 | 0.0543 | 0.0731 | 0.0602 | 0.0681 | 0.0499 | 0.0536 | 0.0735 | 0.0602 | 0.0876 | 0.0645 | 0.0778 | 0.0757 |  | 
2 | A232E | 0.0674 |  |  | 0.0571 | 0.0623 | 0.0566 | 0.105 |  |  | 0.0832 | 0.0601 | 0.0543 |  | 0.076 | 0.061 | 0.0632 |  | 
3 | T23W | 0.0665 | 0.083 | 0.0629 |  | 0.0679 | 0.0657 | 0.0675 | 0.0605 | 0.0605 | 0.0676 |  | 0.0657 | 0.0502 | 0.0717 | 0.0565 | 0.0592 | 0.0629 | 0.0408
4 | D208T | 0.0613 |  | 0.0726 |  | 0.0588 |  | 0.0684 | 0.0584 |  | 0.0642 |  |  | 0.0778 |  | 0.0553 | 0.0665 | 0.0581 | 0.0571
5 | G8C | 0.0574 | 0.0582 |  |  |  |  |  |  |  | 0.0797 |  |  |  |  |  |  |  | 
6 | P104R | 0.0586 | 0.056 | 0.0534 |  |  | 0.071 | 0.0466 |  | 0.0611 | 0.078 | 0.0518 | 0.0544 | 0.0696 | 0.0523 | 0.053 | 0.0423 | 0.0536 | 0.0598
7 | L61C | 0.0611 | 0.0766 | 0.068 | 0.0688 | 0.084 | 0.065 | 0.0678 | 0.0707 | 0.0696 | 0.0726 | 0.072 | 0.0717 | 0.0621 | 0.0465 | 0.0645 | 0.0705 | 0.0574 | 
8 | S121Q | 0.0635 | 0.0856 | 0.0682 |  | 0.0723 | 0.0949 | 0.0677 | 0.0616 |  | 0.0628 | 0.0632 |  | 0.0694 |  | 0.0622 | 0.0532 | 0.069 | 0.0388
9 | E223L | 0.0724 | 0.0681 | 0.064 | 0.0864 | 0.0554 | 0.0661 | 0.0569 |  | 0.0364 | 0.0544 |  | 0.0667 | 0.0601 |  | 0.0674 | 0.0574 |  | 0.0434
10 | D208I | 0.03 | 0.0602 | 0.0632 | 0.0586 | 0.0606 |  | 0.0589 | 0.0526 |  | 0.0612 | 0.0717 |  | 0.0592 |  | 0.0545 | 0.0549 | 0.0578 | 0.0575
11 | W144A | 0.0677 | 0.0889 |  | 0.0689 |  | 0.0696 |  | 0.0377 | 0.0745 | 0.085 |  | 0.0677 | 0.0748 |  | 0.0763 |  | 0.0657 | 
12 | V64H | 0.0807 |  |  |  |  |  |  | 0.0632 |  |  |  |  |  |  |  |  |  | 
13 | H168T | 0.0563 |  | 0.0602 | 0.0634 | 0.0582 |  | 0.0592 | 0.0637 | 0.0605 | 0.0751 |  |  | 0.0652 |  | 0.0591 |  | 0.0537 | 0.0336
14 | C152Y | 0.0654 |  | 0.0472 | 0.0453 | 0.0618 | 0.0626 |  | 0.0584 | 0.0763 | 0.0572 |  | 0.0591 |  |  |  | 0.0506 |  | 0.0659
15 | N24P | 0.0475 | 0.0583 |  | 0.0473 | 0.0516 |  | 0.0529 | 0.058 | 0.0452 | 0.0537 | 0.0487 |  | 0.0608 | 0.0507 | 0.058 | 0.0553 | 0.0455 | 
16 | L77F | 0.0528 | 0.0568 | 0.062 | 0.0504 | 0.0601 | 0.058 | 0.0589 | 0.0505 |  | 0.0448 | 0.0634 | 0.0535 | 0.0521 | 0.0559 | 0.0532 | 0.0677 | 0.05 | 
17 | D208C | 0.0638 |  |  | 0.0582 | 0.0521 | 0.0605 | 0.0614 | 0.0531 | 0.0392 | 0.0674 |  | 0.0683 | 0.0635 |  | 0.0598 | 0.0556 |  | 
18 | K216T | 0.0802 |  | 0.0744 | 0.0648 | 0.0614 | 0.0542 |  |  | 0.0877 | 0.0681 |  | 0.068 | 0.0638 | 0.0541 | 0.0659 | 0.0574 |  | 0.0501
19 | P96E | 0.0725 | 0.0776 | 0.052 | 0.0654 | 0.0728 | 0.0587 | 0.065 | 0.0657 |  | 0.071 |  | 0.0628 | 0.0784 |  | 0.051 | 0.0523 | 0.0653 | 
20 | C152Q | 0.0607 |  | 0.0663 |  | 0.0584 | 0.0474 |  |  |  |  |  |  |  |  | 0.0456 | 0.0532 |  | 
21 | G150C | 0.0628 | 0.0591 | 0.057 | 0.0647 | 0.0565 | 0.0531 | 0.0628 | 0.0643 | 0.0598 | 0.0526 | 0.0538 | 0.0698 | 0.0547 |  | 0.0555 | 0.0608 |  | 
22 | P134C | 0.0567 | 0.0558 |  |  | 0.0586 | 0.0526 | 0.0605 | 0.0571 | 0.0562 | 0.0914 | 0.0626 | 0.0544 | 0.0477 |  | 0.0515 |  | 0.0605 | 
23 | S201D | 0.063 | 0.0611 |  | 0.0644 |  | 0.0642 | 0.0441 |  | 0.0333 |  |  | 0.0621 | 0.0633 |  | 0.0485 | 0.0616 | 0.0564 | 
24 | G80W | 0.0698 | 0.0922 | 0.0507 |  | 0.0578 | 0.0515 | 0.0619 | 0.067 | 0.0639 | 0.0685 |  | 0.0754 | 0.066 | 0.0616 |  | 0.0611 | 0.111 | 0.056
25 | Y12I | 0.0704 | 0.0696 | 0.0836 | 0.0687 | 0.069 | 0.0696 | 0.076 | 0.0628 | 0.0541 | 0.0741 |  | 0.0658 | 0.0569 | 0.0612 | 0.056 | 0.0576 | 0.0753 | 0.068
26 | N24V | 0.0727 | 0.0639 | 0.0599 | 0.0635 | 0.0619 | 0.0611 | 0.0681 | 0.0542 | 0.0643 | 0.0673 |  | 0.07 | 0.0756 | 0.0638 | 0.055 | 0.0632 |  | 
27 | D128S | 0.0801 |  |  | 0.0955 | 0.062 |  | 0.0688 | 0.095 | 0.0749 | 0.0873 |  | 0.127 | 0.0881 | 0.0786 | 0.0725 | 0.0765 |  | 
28 | L112V | 0.0673 | 0.0713 | 0.0652 |  | 0.0616 | 0.0544 | 0.0556 | 0.0642 | 0.0603 | 0.0593 | 0.0848 | 0.0568 | 0.067 | 0.0662 | 0.0594 | 0.0557 | 0.0572 | 
